# About 540 (0.36%) of roughly 150,000 compounds showed an effect of 50% or more. This is one part of the list.
# System: Plasmodium falciparum
# Assay: Primary screen in NF54 nanoGlo assay, in single point, at 2uM, 72h; a lower Z score goes with more inhibition
# Format: functional, Erythrocyte
# Details: timepoint 72 hour
Structure (SMILES),% Inhibition,Z score
O=C(c1cc(CO)ccn1)N(Cc1nccs1)C1CC1,-19%,2.98
CCc1ncc(C(=O)N(C)C[C@H]2CCCCO2)cn1,0%,0.03
CN1C(=O)N(C)[C@H]2C[C@@H]1N(C)C(=O)N2C,4%,-0.62
CS(=O)(=O)N1CC(C(=O)NC2CCCC2)C1,-12%,1.81
O=C(O)CCc1cc2n(n1)CCCN(Cc1ccc(Cl)s1)C2,11%,-1.28
Cc1ccc(O)cc1C(=O)N[C@@H]1C[C@H]2OCC[C@@H]12,-7%,1.16
COCC1(CNC(=O)N[C@H]2CC[C@@H](C(=O)N3CCCC3)C2)CCC1,-5%,0.98
Clc1ccc2nc3c(c(-c4ccccc4Cl)c2c1)-c1ccccc1CC3,-3%,0.57
CC(C)(C)c1ccc(S(=O)(=O)N2C3C=CCC2CC3)cc1 (configuration not stated),-1%,0.17
Cn1ccc(CS(=O)(=O)CC(=O)NCC2CCCCC2)cc1=O,1%,-0.15
CCn1cc(S(=O)(=O)NCCOc2cncc(Cl)c2)cn1,6%,-0.73
CC(C)c1nn(C)cc1-c1noc(C(F)(F)C2CCNCC2)n1,4%,-0.69
Cc1cccc(C[C@@H](CNC(=O)Cc2ccc(C)nc2)C(=O)O)c1,5%,-0.88
O=C(NCCc1cccc(-c2ccccc2)c1)[C@@H]1COCCO1,-17%,1.73
O=C1CCN(Cc2cccc(OCCCCN3CCOCC3)c2)CCN1,-2%,0.33
O=C(NC[C@H](c1ccc(F)cc1)c1c[nH]c2ccccc12)NC1CCCCC1,-7%,1.34
Cc1c(C)c2ccc(NC(=O)c3cc4ccccc4o3)cc2[nH]c1=O,93%,-7.22
C[C@H]1CCN(c2cc(C(=O)Nc3ccc(Br)cn3)ccn2)C1,-5%,0.73
COC(=O)c1cn(-c2cccc(C(=O)NCc3cccnc3)c2)cc2c(O)nnc1-2,-13%,1.67
O=C(NCc1nnc2ccc(N3CCCC3)nn12)c1ccc[nH]c1=O,16%,-2.09
CN1CCC[C@H](Cn2ccc(-c3cccc(-c4nccs4)c3)n2)C1,-5%,0.86

Structure (SMILES),% Inhibition,Z score
CO[C@H]1CCN(C(=O)NCC2(c3ccccn3)CCC2)CC1(C)C,-12%,1.65
O=C1CC[C@@H](C(=O)NCc2ccc(OCc3ccccc3F)cc2)N1,-13%,1.17
C#CC(C)(C)N(C)S(=O)(=O)c1c(C)noc1C,-3%,0.4
COc1ccc(-c2cc3n(C)c(C)c(CCC(=O)NC4CCCCC4)c(=O)n3n2)cc1,4%,-0.47
CC(C)NC(=O)Nc1cc(OCc2ccccc2)ncn1,-2%,0.37
O=S1(=O)CCC(O)(CNc2cc(C3CC3)nc(C3CC3)n2)CC1,0%,0.09
Cc1cc(O)n2nc(CC(=O)NCc3cc(C4CC4)on3)nc2n1,-13%,1.67
COC[C@@H]1[C@H](C(=O)NCc2cc(F)cc(F)c2)CCCN1C,7%,-1.3
Nc1ncnc(NC2CCCCC2n2cccn2)c1Cl (configuration not stated),-10%,1.22
O=C(Nc1cnc2ccnn2c1)C1CCCC1,12%,-1.62
C[C@H]1CCc2c(sc(NC(=O)CCC(=O)O)c2C(=O)N2CCOCC2)C1,-17%,2.41
COCC(=O)N[C@@H]1CN(C(=O)NCc2ccc(F)cc2)CC[C@@H]1c1nc(C)no1,2%,-0.27
CN[C@@H](C)c1nc(C2CCOCC2)nn1CC1CCCCC1,-16%,1.79
Cc1ccc(NC(=O)c2csc(CN(Cc3ccc(F)cc3)Cc3ccc(Cl)cc3)n2)cc1,-15%,1.51
CNC(=O)[C@@H]1C[C@@H](NC(C)C)CN1Cc1ccccc1Cl,-2%,0.29
COCCN(C(=O)Nc1cccc(NC(=O)C(C)C)c1)[C@H]1CCS(=O)(=O)C1,-7%,0.72
O=C(Nc1ccc(-c2ccccn2)cc1)N1CCC[C@@]2(CCS(=O)(=O)C2)C1,5%,-0.38
CCOC(=O)N1CCN(C(=O)CC[C@@H](C)[C@H]2CC[C@H]3[C@@H]4CC[C@@H]5C[C@H](O)CC[C@]5(C)[C@H]4C[C@H](O)[C@]23C)CC1,6%,-0.99
Cc1cccc(CN(Cc2cocn2)Cc2cocn2)n1,-8%,1.25
CC(CCc1cccn1C)NC(=O)N1CCCC(Cn2ccnn2)C1 (configuration not stated),-3%,0.41

# Source: ChEMBL document CHEMBL4888484, “Replenishing the malaria drug discovery pipeline: Screening and hit evaluation of the MMV Hit Generation Library 1 (HGL1) against asexual blood stage Plasmodium falciparum ,using a nano luciferase reporter read-out” (2022)
